# Test results as given in PubChem BioAssay AID504845 (National Center for Advancing Translational Sciences (NCATS), 2011).
# Among all 390,000 compounds or so, about 150 (0.038%) were called active. This list was built around the results that the source calls inconclusive (neither active nor inactive); the mix of calls is not that of the screen. Calls come from the whole dose curve; as a rule, active = well fitted inhibition curve with a large enough effect; inconclusive = small, poorly fitted or top-dose-only effect; inactive = no such curve, though single readings can be large or run the other way. Potencies beside an inconclusive call are fits to weak or partial responses and may not hold up.
# Biological target: Regulator of G-protein signaling 4 (Homo sapiens) (UniProt P49798)
# Experiment: Inhibitors of Regulator of G Protein Signaling (RGS) 4: qHTS; note: nearly all actives have a fitted effect of over 75% in size
# Settings: Transcreener GDP fluorescence polarization, RGS4-accelerated GTP hydrolysis; series mostly up to 114 µM; activity change, negative = inhibition: at the top concentration
# How it was run: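 MLSMR compounds (23 nl, pin-transferred) preincubated 10 min at room temperature with a 500nM (2x) first reagent, then RGS4 at 900nM (2x) plus Transcreener GDP mix added; fluorescence polarization (620/688 nm) read before and after 90 min at 30 °C.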
# % is set by controls: 0 for no effect and ±100 for the full control effect; potency is the fitted concentration of half-maximal effect; tags give direction and shape of the fitted curve.
# UniProt P49798, sequence (P49798 whole entry, looked up): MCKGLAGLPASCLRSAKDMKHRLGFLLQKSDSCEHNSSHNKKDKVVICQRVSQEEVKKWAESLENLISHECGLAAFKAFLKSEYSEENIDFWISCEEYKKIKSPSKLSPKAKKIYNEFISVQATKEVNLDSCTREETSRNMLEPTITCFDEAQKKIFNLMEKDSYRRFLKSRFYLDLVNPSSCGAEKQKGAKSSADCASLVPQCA
Compound,"activity change, negative = inhibition",Potency
NS(=O)(=O)c1ccc(Oc2ccc(S(N)(=O)=O)cc2)cc1,inactive: -20.8%,
CC1CCCCN1C(=O)Cn1cnc2cc([N+](=O)[O-])ccc2c1=O (stereo unspecified),,"inconclusive: 39.8 µM [inhibitor, partial curve, poor fit]"
Cc1nc(N2CCC(C)CC2)c2c(C)c(C(=O)Nc3ccc(C(F)(F)F)cc3)sc2n1,inactive: 2.4%,
COc1cccc(Nc2nc(-c3sc(NC(=O)CC(C)C)nc3C)cs2)c1,,"inconclusive: 22.4 µM [inhibitor, full curve, poor fit]"
Cc1nc2c(ccc3nc(NC(=O)C(c4ccccc4)c4ccccc4)sc32)s1,inactive: -5.85%,
Cn1c(=N)c(S(=O)(=O)c2ccccc2)cc2c(=O)n3ccccc3nc21,inactive: 3.22%,
Cc1ccc(OCC(=O)Nc2cccc(C(=O)OCc3cc(=O)n4c(C)csc4n3)c2)cc1,,"inconclusive: 44.7 µM [inhibitor, partial curve, poor fit]"
NC1(C(=O)O)C[C@@H](C(=O)O)[C@H](C(=O)O)C1,,"inconclusive: 5.32 µM [inhibitor, partial curve, poor fit]"
COc1ccccc1NC(=S)N/N=C/c1ccc(O)cc1,inactive: 0.114%,
CCCOc1ccc(CNC(=O)CN2C(=O)c3cccnc3Oc3ccc(C)cc32)cc1,inactive: 14.6%,
COc1ccc(S(=O)(=O)NCc2ccc(C(=O)N3CCN(Cc4ccccc4)CC3)cc2)cc1,inactive: 42.5%,
N#Cc1c(NC(=S)NC(=O)C2CCCC2)sc2c1CCCCC2,,"inconclusive: 17.8 µM [inhibitor, full curve, poor fit]"
CCOC(=O)c1oc2cc(O)cc(C)c2c(=O)c1-c1cscn1,inactive: 23.2%,
O=S(=O)(Nc1cccc(Cl)c1)c1ccc2oc(=S)[nH]c2c1,,"inconclusive: 50.1 µM [inhibitor, partial curve, poor fit]"
O=C(CCc1ccc(S(=O)(=O)N2CCOCC2)cc1)N/N=C/c1ccc(O)c(O)c1O,,"inconclusive: 50.1 µM [inhibitor, partial curve, poor fit]"
O=C(c1cccc2nccnc12)N1CCCC(Nc2ccc(F)c(F)c2)C1 (stereo unspecified),inactive: -22.9%,
Cc1c(CCNC(=O)C(C)(C)C)sc2nc(-c3ccc(F)cc3)nn12,inactive: 18%,
CCN1C(=O)/C(=c2\sc3nc(=O)c(Cc4ccccc4)nn3c2=O)c2ccccc21,,"inconclusive: 79.4 µM [inhibitor, partial curve, poor fit]"
COc1cc(/C=C2/SC(=S)N(c3ccccc3)C2=O)ccc1Oc1nc(N2CCOCC2)nc(N2CCOCC2)n1,,"inconclusive: 89.1 µM [inhibitor, single point]"
CCSc1nc2c([nH]1)c(=O)n(C)c(=S)n2C,,"inconclusive: 39.8 µM [inhibitor, partial curve, poor fit]"
CCC1CCc2c(sc(N)c2C(N)=O)C1 (stereo unspecified),,"inconclusive: 79.4 µM [inhibitor, partial curve, poor fit]"
COc1ccc(OCC(=O)Nc2ccc(-c3nc4cc(C)c(C)cc4o3)cc2)cc1,inactive: 2.6%,
CS(=O)(=O)c1ccc(C(=O)Nc2nc(-c3ccco3)c(-c3ccco3)s2)cc1,,"inconclusive: 31.6 µM [inhibitor, partial curve, poor fit]"

Compound,"activity change, negative = inhibition",Potency
COc1ccccc1-c1nnc2sc(-c3cc4ccccc4o3)nn12,inactive: 24.3%,
N[C@H](C(=O)O)[C@@H]1[C@@H](C(=O)O)C1(F)F,,"inconclusive: 0.423 µM [inhibitor, partial curve, poor fit]"
O=c1c2c(-c3cccs3)csc2ncn1/N=C/c1ccc(OC(F)F)cc1,inactive: 11.3%,
O=C(CCS(=O)(=O)c1cccc2nonc12)Nc1ccc(Br)cc1,,"inconclusive: 89.1 µM [inhibitor, single point]"
COc1cccc(/C=C/C(=O)NCC2CCCCC2)c1,inactive: 20.9%,
O=C1N(c2ccccc2C(F)(F)F)O[C@@]1(c1ccccc1)C1CCCCC1,inactive: -0.333%,
CCSc1nnnn1-c1ccccc1,inactive: 10.4%,
O=C(CSc1nc2ccccc2s1)Nc1ccc(Cl)c(C(=O)O)c1,,"inconclusive: 28.2 µM [inhibitor, full curve, poor fit]"
COC(=O)C1=C(C(C)=O)C(c2ccc(C)cc2)n2nnnc2N1 (stereo unspecified),,"inconclusive: 79.4 µM [inhibitor, single point]"
CNC(=S)N1N=C(c2ccc(C)cc2)CC1c1ccc(OC)c(OC)c1 (stereo unspecified),,"inconclusive: 79.4 µM [inhibitor, single point]"
Cc1ccc(-c2ccc(/C=N/NC(=O)CN3CCOCC3)o2)cc1[N+](=O)[O-],,"inconclusive: 79.4 µM [inhibitor, partial curve, poor fit]"
Cc1ccccc1C(=O)Nc1cccc(C(=O)Nc2ccccc2C(=O)O)c1,inactive: -4.8%,
Cc1nc2ccc(N=NN(C)C)cc2[nH]1,,"inconclusive: 44.7 µM [inhibitor, partial curve, poor fit]"
Cc1cc(OCCn2ccnc2)cc(C)c1Cl,inactive: -4.44%,
CCCOc1ccc(N)cc1N,,"inconclusive: 17.8 µM [inhibitor, full curve, poor fit]"
O=C(Nc1ccc2c(c1)OCO2)N1CCN(C/C=C/c2ccccc2)CC1,inactive: 35%,
O=C(CSc1nnc(-c2ccc(C(F)(F)F)cn2)o1)Nc1ccccc1Cl,,"inconclusive: 100 µM [inhibitor, partial curve, poor fit]"
COc1cccc(-c2cn3ncsc3n2)c1,inactive: -1.87%,
O=C(CN1CCN(c2ccc([N+](=O)[O-])cc2)CC1)c1ccccc1,,"inconclusive: 10 µM [inhibitor, full curve, poor fit]"
COc1ccc(/C=N/NC(=O)CN(c2ccc(OC)cc2)S(=O)(=O)c2ccccc2)cc1,,"inconclusive: 35.5 µM [inhibitor, full curve, poor fit]"
Cc1cc(C)cc(C(=O)N2CC(=O)Nc3ccccc32)c1,inactive: -20.1%,
Cn1c(CNC(=O)c2ccccc2)nnc1SCC(=O)Nc1nccs1,,"inconclusive: 17.8 µM [inhibitor, full curve, poor fit]"
NC(=S)NN=C1CCCCCCCC1,,"inconclusive: 100 µM [inhibitor, partial curve, poor fit]"
